Consider 1 molecule from patent publication US20180186871A1.

Assay [1] addresses human IL-11 (human) (UniProt P20809). As to the kind of experiment: ELISA binding signal.
Assay [2] concerns the target T1, murine IL-11 (mouse) (UniProt P47873).
T1 sequence (looked up): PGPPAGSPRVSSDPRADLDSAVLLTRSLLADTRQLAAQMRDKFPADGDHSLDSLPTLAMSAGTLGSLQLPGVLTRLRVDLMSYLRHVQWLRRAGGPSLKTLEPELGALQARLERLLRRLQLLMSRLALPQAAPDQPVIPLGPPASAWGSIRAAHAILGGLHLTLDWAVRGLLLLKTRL
As to the kind of experiment: ELISA binding signal. For orientation: An ELISA detects its analyte on a solid surface through an enzyme-linked reagent.

B1: YU112-E08 (scFv)
scFv: VTLKESGGGVVQPGRSLRLSCAASGFTFSSYGMHWVRQAPGKGLEWVAVISYDGSNKYYADSVKGRFTISRDNSKNTLYLQMNSLRAEDTAVYYCAKGGKSYYGFDYWGQGTLVTVSSGSASAPKLEEGEFSEARV[no letters for about 100 residues]TWTFGQGTKVEIK
For the molecule B1, in assay [1], the hIL11 - average signal is 0.373. The mIL11 - average signal in assay [2] amounted to 0.323.
